Survival data for 92 molecules are collected here from PubChem BioAssay AID463173 (ICCB-Longwood Screening Facility, Harvard Medical School, 2010).

Molecules are shown by their SMILES. Screen size: about 52,000 compounds; about 4,300 (8.3%) were called active. Rule as the data show it: active = survival mostly below about 52% (no sharp cut-off); inactive = mostly above about 56%. The list shows a part of the results.

The subject of this experiment is DeltatarO mutant. Put plainly: growth inhibition of S. aureus wild type versus tarO mutant, primary screen, teichoic acid synthesis inhibitors, RN4220, OD600 (AID 463173). The following applies: OD600, 18 h, active compounds read low, screened at 18.75 µg/mL (by protocol).
On to `COc1cccc(-c2nnc(SCC(=O)N3CCc4ccccc43)o2)c1`, for which the survival is inactive: 70%. As to `CC(Nc1ncnc2c1cnn2-c1cccc(Cl)c1)c1ccccc1` (configuration not stated), the survival is inactive: 124%.

As for `O=C(NCc1ccc(Cl)cc1)C(=O)NCC(c1cccnc1)N1CCN(c2ccccc2)CC1` (configuration not stated), the survival is inactive: 47%. `CCS(=O)(=O)c1c(S(=O)(=O)CC)c2cc(C(C)(C)C)ccn2c1C(=O)c1ccc(F)cc1`: the survival was inactive: 65%. On to `Cc1cc2c(cc1C)NC(CC(=O)Nc1cccc(C)c1C)C(=O)N2` (configuration not stated), for which the survival is inactive: 68%. For `Cc1nc2ccccc2c2nc(N)nn12`, the survival is inactive: 85%. On to `COc1cc(Cl)c(C)cc1NC(=O)Cn1cnc2sc(C)c(S(=O)(=O)N3CCCCC3)c2c1=O`, for which the survival is inactive: 128%.

`CCOc1ccccc1NC(=O)Nc1ccccc1OCc1cc(=O)n2ccccc2n1`: the survival was inactive: 95%. The result for `Cc1noc(NS(=O)(=O)c2ccc(NC(=O)COc3ccccc3Br)cc2)c1C` reads inactive: 53%; that for `CN(CC(=O)NCc1ccc(Cl)cc1)S(=O)(=O)c1ccc2c(c1)c(=O)n(C)c(=O)n2C`, inactive: 83%; that for `Cc1ccc(CCNC(=O)c2ccc(CS(=O)(=O)Cc3ccc(Cl)cc3)o2)cc1`, inactive: 84%.

As for `CCOC(=O)c1scc(-c2ccc(C)cc2)c1S(=O)(=O)Nc1cc(C)ccc1C`, the survival was inactive: 81%. Consider `COc1ccccc1N(CC(=O)NCCSc1ccccc1)S(=O)(=O)c1ccc(C)cc1`, for which the survival was inactive: 62%. With `Cc1cn2c(=O)cc(COC(=O)COc3ccc(F)cc3)nc2s1`, the survival was inactive: 70%. The result for `COc1cccc(-c2nn(C)c3sc(C(=O)N4CCN(c5cccc(C(F)(F)F)c5)CC4)cc23)c1` reads inactive: 53%. With `COc1ccc(OC)c(S(=O)(=O)NCCc2sc(C)nc2C)c1`, the survival was inactive: 65%.

Consider `CCCCNC(=O)c1ccc(-c2nc(CN3CCc4ccccc43)c(C)o2)cc1`, for which the survival is inactive: 117%. Regarding `Cc1cccc(COc2ccc(-c3cc(C(F)(F)F)n4nc(C)cc4n3)cc2)c1`, the survival is active: 9%. For the molecule `CCc1ccc(-c2nc3cc(NC(=O)c4ccc(F)cc4)ccc3o2)cc1`, the survival was inactive: 83%.

With `Cc1ccc(Nc2c3c(nc4ccccc24)CCC3)cc1F`, the survival is active: 2%. As for `CSc1nc2sc3c(c2c(=O)n1-c1ccc(C)cc1)CCCC3`, the survival was active: 39%. Turning to `COc1ccc(Cl)cc1NC(=O)N1CCC2(CC1)Oc1ccccc1C(=O)N2Cc1ccc(F)cc1`, the survival is inactive: 71%. On to `CCOC(=O)C1=C(CN(CC)Cc2ccccc2)NC(=O)NC1c1ccc(Cl)cc1` (configuration not stated), for which the survival was inactive: 64%. In the case of `COc1ccc(NC(=O)N2CCC(n3c(C)nc4cccnc43)CC2)cc1OC`, the survival is inactive: 88%. Regarding `Cc1ccc(OCCSc2nc3ccc(NC(=O)COc4ccc(C)cc4)cc3s2)cc1`, the survival was inactive: 91%. With `CCOC(=O)c1cnn(-c2cccc(Cl)c2)c1C1CCN(C(=O)OC(C)(C)C)CC1`, the survival was active: 55%. As for `CC1CCc2c(sc3nnn(CC(=O)Nc4ccccc4Cl)c(=O)c23)C1` (configuration not stated), the survival is inactive: 71%.

On to `Fc1ccc(NCc2nc3ccccc3n2CCOc2ccccc2Cl)cc1`, for which the survival was inactive: 91%. In the case of `CC1(C)Cc2c(sc(/N=C/N3CCCC3)c2C#N)C(C)(C)N1`, the survival was inactive: 108%. As to `COc1ccc(-n2c(=O)c3c(c4cc(OC)ccc4n3C)n(Cc3c(F)cccc3Cl)c2=O)cc1`, the survival was inactive: 86%.

For the molecule `CSc1ncc2c(n1)-c1ccccc1N(Cc1ccccc1C)S2(=O)=O`, the survival is inactive: 94%. Under `COc1cccc(CCNC(=O)c2cnc3sc(N4CCCC4)nn3c2=O)c1` stands inactive: 84%; under `Cc1cccc(-n2c3nc(=O)n(C)c(=O)c-3cc3c(C)nn(-c4ccccc4)c32)c1C`, inactive: 85%. Under `COC1(C(F)(F)F)NC(=O)N(c2ccc(F)cc2)C1=O` (configuration not stated) stands inactive: 72%; under `COc1ccc(-c2cc(C(N)=O)on2)c(OC)c1`, inactive: 99%. In the case of `COCCn1c(C)nnc1SCC1CCCO1` (configuration not stated), the survival is inactive: 80%. As to `COc1cc(Cl)c(S(=O)(=O)N2CCN(c3c(C)cccc3C)CC2)cc1Cl`, the survival was inactive: 69%. Take `COc1ccc(CNc2nc(-c3ccccc3)nn2C(=O)c2ccccc2OC)cc1`: the survival is inactive: 102%. The result for `CCOC(=O)c1cc2c(=O)n3ccccc3nc2n(CC2CCCO2)c1=NC(=O)c1ccc(OCC)cc1` (configuration not stated) reads inactive: 51%. On to `CN(Cc1ccccc1)C(=O)c1c[nH]c2ccc(S(=O)(=O)Nc3ccccc3F)cc2c1=O`, for which the survival was inactive: 76%.

Consider `Cc1ccc(CCC(=O)Nc2ccc(C(C)C)cc2)o1`, for which the survival is inactive: 85%.

Take `CCCn1cc(S(=O)(=O)c2ccc(OCC)cc2)c(=O)c2cc(C)ccc21`: the survival was inactive: 103%. In the case of `CCN(CC)c1ccc2c(COC(C)=O)cc(=O)oc2c1`, the survival is inactive: 82%. The result for `O=C1NCN(c2ccccc2)C12CCN(c1nnnn1-c1ccccc1)CC2` reads inactive: 88%; that for `CCCCC(=O)Nc1cc(-c2cn3cccnc3n2)ccc1C`, inactive: 102%; that for `CCOc1ccc(-c2c(C)nn3c(C)c(C(=O)NC(C)c4ccccc4)cnc23)cc1OCC` (configuration not stated), inactive: 60%. In the case of `Cc1c(-c2cccc(NC(=O)Cc3ccccc3)c2)nc2ncccn12`, the survival was inactive: 77%. For the molecule `O=C(CCSCc1ccccc1Cl)NCCc1ccccc1`, the survival was inactive: 71%. Consider `O=C(Cn1ccn(-c2ccc(F)c(F)c2)c(=O)c1=O)NCc1ccccc1`, for which the survival is inactive: 62%. Under `CCN(C(=O)c1nn(C)c2c1CSc1ccccc1-2)c1cccc(C)c1` stands inactive: 99%; under `COc1ccc(NC(=O)Cn2nc(C)c3c(C)n(-c4ccccc4)nc3c2=O)cc1OC`, inactive: 55%; under `COc1cc(C(=O)OCc2cc(=O)n3ccsc3n2)cc(OC)c1OC`, active: -2%.

Turning to `COc1ccc(S(=O)(=O)NCC(c2ccco2)S(=O)(=O)c2cccs2)cc1OC` (configuration not stated), the survival was inactive: 70%.

Consider `Oc1ccc(NC(=S)Nc2ccc(O)cc2)cc1`, for which the survival was inactive: 80%. With `CCOc1cc(-c2cc(C(=O)O)c3c(-c4ccccc4)[nH]nc3n2)ccc1O`, the survival is inactive: 53%. Take `Cc1cc(C=C(C#N)C#N)c(C)n1-c1ccc(N2CCOCC2)cc1`: the survival is inactive: 60%. On to `CCOc1cc(C(=O)N2CC(=O)Nc3ccc(F)cc3C2c2ccccc2)cc(OCC)c1OCC` (configuration not stated), for which the survival is inactive: 78%. Consider `CC(C)OCCCNC(=O)Cn1c(-c2cccs2)cc2cc(F)ccc21`, for which the survival was inactive: 83%. Turning to `COc1ccc(N2CCN(CCCNC(=O)c3sc4ncccc4c3-n3cccc3)CC2)cc1`, the survival was inactive: 101%. Under `CCn1c(=O)c(C(=O)Nc2nccs2)c(O)c2ccccc21` stands inactive: 100%; under `COc1cccc(-c2noc(COc3cccc(C)c3C)n2)c1`, inactive: 84%; under `COC(=O)c1cn(-c2ccccc2)nc1C(=O)OC`, inactive: 96%. On to `CCOc1ccc(CCNC(=O)C2CC(=O)N(CCc3ccc(OC)c(OC)c3)C2)cc1OCC` (configuration not stated), for which the survival was inactive: 91%.

Take `CCOC(=O)c1c(NC(=O)COc2ccc(OC)cc2)sc(C(=O)N(CC)CC)c1C`: the survival was active: 3%.

Turning to `CCCCN(CC)CCNC(=O)c1nn(-c2ccc(OC)cc2)c(=O)c2c1c1ccccc1n2C`, the survival is inactive: 96%. In the case of `N#C/C(=C\c1ccccc1)c1nc(-c2cc3c(ccc4ccccc43)oc2=O)cs1`, the survival was inactive: 120%. Consider `CC1CCN(C(=O)CS(=O)(=O)Cc2ccccc2)CC1`, for which the survival was inactive: 80%.

On to `CCCC(=O)OCc1cnc(C)c2oc(=O)c(C(=O)Nc3ccc(F)cc3C)cc12`, for which the survival is inactive: 88%.

Take `Cc1cccc(CNC(=O)C2CCN(S(=O)(=O)c3cccc4nonc34)CC2)c1`: the survival is inactive: 83%. Take `Cc1ccc2[nH]cc(NC(=O)NCCO)c(=O)c2c1`: the survival was inactive: 88%. The result for `Cc1ccc(C)c(NC(=O)C2CCCN2S(=O)(=O)c2ccc3c(c2)CCCC(=O)N3)c1` (configuration not stated) reads inactive: 87%; that for `CCC1=Nc2cc(C(=O)N3CCC(C)CC3)ccc2Sc2ccc(C)cc21`, active: -4%.

Take `COc1ccc(-c2noc(CNC(=O)c3ccc(OC)cc3OC)n2)cc1`: the survival was active: 62%. On to `O=S(=O)(NCc1ccco1)c1ccc(S(=O)(=O)N2CCCCC2)cc1`, for which the survival was inactive: 78%. Under `COCCNC(=O)c1sc2nc3n(c(=O)c2c1C)CCC3` stands inactive: 86%; under `COc1ccc(N2CC(c3nc(-c4ccccc4C)no3)CC2=O)cc1Cl` (configuration not stated), inactive: 83%; under `CCc1ccc(NS(=O)(=O)c2ccc3[nH]cc(C(=O)NCCc4ccccc4)c(=O)c3c2)cc1`, inactive: 87%. As to `CCOC(=O)c1cccc(NC(=O)Cn2cnc3nc4c(cc3c2=O)CCCC4)c1`, the survival was inactive: 94%.

For the molecule `CCN(CC)CCCNC(=O)c1ccc2c(c1)NC(=O)C(CS(=O)(=O)Cc1ccc(F)cc1Cl)N2` (configuration not stated), the survival is inactive: 134%.

In the case of `C=Cn1c(C)c(C(C#N)=C(C#N)C#N)c2c1CCCC2`, the survival is active: 2%.

With `COc1ccc(N2CCN(C(=O)c3cc4c(s3)-c3c(C)cccc3OC4)CC2)cc1`, the survival is inactive: 94%. With `Cc1cc(C)cc(NC(=O)C2CCCN(c3nnc(-n4c(C)ccc4C)s3)C2)c1` (configuration not stated), the survival is inactive: 85%. With `CCCc1ccc(OC(=O)c2sc3ncn(Cc4cccc(F)c4)c(=O)c3c2C)cc1`, the survival was inactive: 89%. Regarding `COc1ccc(NC(=O)Cn2c(SCc3c(F)cccc3Cl)nc3ccncc32)cc1OC`, the survival was inactive: 91%.

Consider `COCCn1c(SCC(=O)Nc2ccc(Br)cc2)nc2c([nH]c3ccccc32)c1=O`, for which the survival was inactive: 83%. On to `Cc1ccc(-c2onc(C)c2C)cc1S(=O)(=O)N1CCc2ccccc21`, for which the survival was inactive: 86%. As to `CS(=O)(=O)N(CC(=O)O)c1ccc(Cl)cc1`, the survival was inactive: 105%.

For `Nc1cccc(Cl)c1N1CCOCC1`, the survival is inactive: 112%. With `Cc1cccc(CCNC(=O)CCc2c(C)nc3c(-c4ccc(F)cc4)c(C)nn3c2C)c1`, the survival was inactive: 73%. The result for `CN1CCN(c2ccc(-c3nc(-c4ccccc4)no3)cc2[N+](=O)[O-])CC1` reads active: 41%; that for `COC(=O)c1ccc(NC(=O)C(c2ccccc2)N2Cc3ccccc3C2=O)cc1` (configuration not stated), inactive: 72%. Take `Cc1nc(-c2ccc(Cl)cc2)sc1CCNC(=O)C(=O)Nc1ccccc1C#N`: the survival is inactive: 80%.
